Some of the results follow.
Assays:
Assay in all cases: glycan array binding signal (z-score within array); higher = stronger binding
Conditions in all cases: glycan notation: IUPAC condensed, linker removed
Fuc(a1-2)Gal = target: Fuc(a1-2)Gal
Outline: (§1)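 From the Consortium for Functional Glycomics database, 3228 arrays were curated, keeping only those whose protein sequence was available. Binding is given as a within-array Z-score averaged across arrays sharing a protein sequence and across linkers. Negative Z-scores can be read as non-binding.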

Fuc(a1-2)Gal(b1-3)GalNAc = target: Fuc(a1-2)Gal(b1-3)GalNAc
Outline: as §1

[1] = target: Fuc(a1-2)Gal(b1-3)GalNAc(b1-3)Gal
Outline: as §1

[2] = target: Fuc(a1-2)Gal(b1-3)GalNAc(b1-3)Gal(a1-4)Gal(b1-4)Glc
Outline: as §1

[3] = target: Fuc(a1-2)Gal(b1-3)GalNAc(b1-4)[Neu5Ac(a2-3)]Gal(b1-4)Glc
Outline: as §1

Fuc(a1-2)Gal(b1-3)GlcNAc = target: Fuc(a1-2)Gal(b1-3)GlcNAc
Outline: as §1

[4] = target: Fuc(a1-2)Gal(b1-3)GlcNAc(b1-3)Gal(b1-4)Glc
Outline: as §1

[5] = target: Fuc(a1-2)Gal(b1-3)[Fuc(a1-4)]GlcNAc
Outline: as §1

Fuc(a1-2)Gal(b1-4)Glc = target: Fuc(a1-2)Gal(b1-4)Glc
Outline: as §1

Fuc(a1-2)Gal(b1-4)GlcNAc = target: Fuc(a1-2)Gal(b1-4)GlcNAc
Outline: as §1

[6] = target: Fuc(a1-2)Gal(b1-4)GlcNAc(b1-3)Gal(b1-4)GlcNAc
Outline: as §1

[7] = target: Fuc(a1-2)Gal(b1-4)GlcNAc(b1-3)Gal(b1-4)GlcNAc(b1-3)Gal(b1-4)GlcNAc
Outline: as §1

[8] = target: Fuc(a1-2)Gal(b1-4)[Fuc(a1-3)]GlcNAc
Outline: as §1

[9] = target: Fuc(a1-2)Gal(b1-4)[Fuc(a1-3)]GlcNAc(b1-3)Gal(b1-4)[Fuc(a1-3)]GlcNAc
Outline: as §1

[10] = target: Fuc(a1-2)Gal(b1-4)[Fuc(a1-3)]GlcNAc(b1-3)Gal(b1-4)[Fuc(a1-3)]GlcNAc(b1-3)Gal(b1-4)[Fuc(a1-3)]GlcNAc
Outline: as §1

Fuc(a1-2)GlcNAc = target: Fuc(a1-2)GlcNAc
Outline: as §1

Fuc(a1-2)[Gal(a1-3)]Gal = target: Fuc(a1-2)[Gal(a1-3)]Gal
Outline: as §1

[11] = target: Fuc(a1-2)[Gal(a1-3)]Gal(b1-3)GlcNAc
Outline: as §1

[12] = target: Fuc(a1-2)[Gal(a1-3)]Gal(b1-4)Glc
Outline: as §1

[13] = target: Fuc(a1-2)[Gal(a1-3)]Gal(b1-4)GlcNAc
Outline: as §1

[14] = target: Fuc(a1-2)[Gal(a1-3)]Gal(b1-4)[Fuc(a1-3)]GlcNAc
Outline: as §1

[15] = target: Fuc(a1-2)[Gal(a1-4)]Gal(b1-4)GlcNAc
Outline: as §1

[16] = target: Fuc(a1-2)[GalNAc(a1-3)]Gal
Outline: as §1

[17] = target: Fuc(a1-2)[GalNAc(a1-3)]Gal(b1-3)GlcNAc
Outline: as §1

[18] = target: Fuc(a1-2)[GalNAc(a1-3)]Gal(b1-4)Glc
Outline: as §1

[19] = target: Fuc(a1-2)[GalNAc(a1-3)]Gal(b1-4)GlcNAc
Outline: as §1

[20] = target: Fuc(a1-2)[GalNAc(a1-3)]Gal(b1-4)[Fuc(a1-3)]GlcNAc
Outline: as §1

[21] = target: Fuc(a1-2)[GalNAc(a1-4)]Gal(b1-4)GlcNAc
Outline: as §1

[22] = target: Fuc(a1-2)[GalNAc(b1-3)]Gal
Outline: as §1

Fuc(a1-3)GlcNAc = target: Fuc(a1-3)GlcNAc
Outline: as §1

[23] = target: Fuc(a1-3)[Gal(b1-4)]GlcNAc
Outline: as §1

[24] = target: Fuc(a1-3)[Gal(b1-4)]GlcNAc(b1-4)Gal(b1-4)[Fuc(a1-3)]GlcNAc
Outline: as §1

[25] = target: Fuc(a1-3)[Gal(b1-4)]GlcNAc(b1-4)Gal(b1-4)[Fuc(a1-3)]GlcNAc(b1-4)Gal(b1-4)[Fuc(a1-3)]GlcNAc
Outline: as §1

[26] = target: Fuc(a1-3)[Gal3S(b1-4)]GlcNAc
Outline: as §1

[27] = target: Fuc(a1-3)[GalNAc(b1-4)]GlcNAc
Outline: as §1

Fuc(a1-4)GlcNAc = target: Fuc(a1-4)GlcNAc
Outline: as §1

Fuc(b1-3)GlcNAc = target: Fuc(b1-3)GlcNAc
Outline: as §1

Gal(a1-2)Gal = target: Gal(a1-2)Gal
Outline: as §1

Gal(a1-3)Gal = target: Gal(a1-3)Gal
Outline: as §1

Gal(a1-3)Gal(b1-3)GlcNAc = target: Gal(a1-3)Gal(b1-3)GlcNAc
Outline: as §1

Gal(a1-3)Gal(b1-4)Glc = target: Gal(a1-3)Gal(b1-4)Glc
Outline: as §1

Gal(a1-3)Gal(b1-4)GlcNAc = target: Gal(a1-3)Gal(b1-4)GlcNAc
Outline: as §1

[28] = target: Gal(a1-3)Gal(b1-4)[Fuc(a1-3)]GlcNAc
Outline: as §1

Gal(a1-3)GalNAc = target: Gal(a1-3)GalNAc
Outline: as §1

[29] = target: Gal(a1-3)[Gal(a1-4)]Gal(b1-4)GlcNAc
Outline: as §1

B1: Siglec-H (Mus musculus), Q4QQK7 (protein)
chain: MLLSRLLPLLWVLKWASGNCFILPREVIGTYPSLTLELQSVTVQEGLCVLVPCHLIEYPMNRWSDAAFGYWFHEGENTHPDSLVATNKPYQLVQKEMQSRFHFSGDCSLDIRDAQKGDNGSYFFRLEKGGKTWNFCEERISVHVTDLTHSPNISIPQTLELGRPTNVMCSVPWACERGTPPIFSWMSAALISLGPTTTLSSVLTLTPRLQDHGTNLTCQVTFPGAGVTVQKTIQLNVTYNSQNSTAHVSGRVGPGKPRPLADVVQVAMGEAAIKFLLLGICFFFLSKRSHTKRVERPATHMDQAHAVMD
Fuc(a1-2)Gal
  glycan array binding signal (z-score): -0.112
Fuc(a1-2)Gal(b1-3)GalNAc
  glycan array binding signal (z-score): 0.608
[1]
  glycan array binding signal (z-score): 2.48
[2]
  glycan array binding signal (z-score): -0.283
[3]
  glycan array binding signal (z-score): -0.299
Fuc(a1-2)Gal(b1-3)GlcNAc
  glycan array binding signal (z-score): -0.373
[4]
  glycan array binding signal (z-score): 2.46
[5]
  glycan array binding signal (z-score): -0.198
Fuc(a1-2)Gal(b1-4)Glc
  glycan array binding signal (z-score): -0.346
Fuc(a1-2)Gal(b1-4)GlcNAc
  glycan array binding signal (z-score): -0.298
[6]
  glycan array binding signal (z-score): -0.248
[7]
  glycan array binding signal (z-score): -0.324
[8]
  glycan array binding signal (z-score): -0.312
[9]
  glycan array binding signal (z-score): -0.254
[10]
  glycan array binding signal (z-score): 1.73
Fuc(a1-2)GlcNAc
  glycan array binding signal (z-score): -0.327
Fuc(a1-2)[Gal(a1-3)]Gal
  glycan array binding signal (z-score): -0.36
[11]
  glycan array binding signal (z-score): -0.239
[12]
  glycan array binding signal (z-score): -0.284
[13]
  glycan array binding signal (z-score): -0.354
[14]
  glycan array binding signal (z-score): -0.398
[15]
  glycan array binding signal (z-score): -0.324
[16]
  glycan array binding signal (z-score): -0.334
[17]
  glycan array binding signal (z-score): -0.271
[18]
  glycan array binding signal (z-score): -0.106
[19]
  glycan array binding signal (z-score): -0.206
[20]
  glycan array binding signal (z-score): -0.235
[21]
  glycan array binding signal (z-score): -0.311
[22]
  glycan array binding signal (z-score): -0.336
Fuc(a1-3)GlcNAc
  glycan array binding signal (z-score): -0.312
[23]
  glycan array binding signal (z-score): -0.211
[24]
  glycan array binding signal (z-score): -0.277
[25]
  glycan array binding signal (z-score): -0.236
[26]
  glycan array binding signal (z-score): -0.318
[27]
  glycan array binding signal (z-score): -0.322
Fuc(a1-4)GlcNAc
  glycan array binding signal (z-score): -0.188
Fuc(b1-3)GlcNAc
  glycan array binding signal (z-score): 0.809
Gal(a1-2)Gal
  glycan array binding signal (z-score): -0.199
Gal(a1-3)Gal
  glycan array binding signal (z-score): -0.35
Gal(a1-3)Gal(b1-3)GlcNAc
  glycan array binding signal (z-score): -0.306
Gal(a1-3)Gal(b1-4)Glc
  glycan array binding signal (z-score): -0.291
Gal(a1-3)Gal(b1-4)GlcNAc
  glycan array binding signal (z-score): -0.404
[28]
  glycan array binding signal (z-score): -0.289
Gal(a1-3)GalNAc
  glycan array binding signal (z-score): -0.377
[29]
  glycan array binding signal (z-score): -0.314

— the supplement of paper PMC8728848
